Source: patent US20200085917A1 (UNIVERSITY OF PITTSBURGH OF THE COMMONWEALTH SYSTEM OF …, published 2020)

Legend:
Assay in all cases: GST pull-down, LC-MS/MS
[1] = target: T1, Idh3g_IPI:IPI00109169.1 (mouse, UniProt P70404 40-393)
T1 sequence (looked up): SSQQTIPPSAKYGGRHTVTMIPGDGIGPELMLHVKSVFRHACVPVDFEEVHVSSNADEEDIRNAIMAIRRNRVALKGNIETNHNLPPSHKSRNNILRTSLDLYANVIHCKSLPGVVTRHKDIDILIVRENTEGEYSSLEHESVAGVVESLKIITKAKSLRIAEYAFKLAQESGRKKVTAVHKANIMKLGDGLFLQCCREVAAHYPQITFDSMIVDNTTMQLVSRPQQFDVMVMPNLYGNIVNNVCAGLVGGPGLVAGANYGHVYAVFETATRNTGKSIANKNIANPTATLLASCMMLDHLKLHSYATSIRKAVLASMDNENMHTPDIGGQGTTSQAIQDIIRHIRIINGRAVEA

[2] = target: T2, Tim50 (endogenous, mouse) (mouse, UniProt Q9D880 22-353)
T2 construct: also called Timm50_IPI:IPI00111045.1; Timm50
T2 sequence (Q9D880 22-353 limits assumed): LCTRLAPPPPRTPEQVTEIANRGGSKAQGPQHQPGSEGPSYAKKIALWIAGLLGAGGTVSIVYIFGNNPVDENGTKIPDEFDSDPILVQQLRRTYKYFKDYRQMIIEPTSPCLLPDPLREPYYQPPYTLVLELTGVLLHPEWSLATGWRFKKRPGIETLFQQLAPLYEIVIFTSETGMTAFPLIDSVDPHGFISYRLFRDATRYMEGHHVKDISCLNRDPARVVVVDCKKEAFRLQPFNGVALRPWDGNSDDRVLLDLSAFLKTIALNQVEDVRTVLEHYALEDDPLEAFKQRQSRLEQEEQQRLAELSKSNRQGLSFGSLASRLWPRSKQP

[3] = target: T3, Pycr2_IPI:IPI00123278.1 (mouse, UniProt Q922Q4 2-320)
T3 sequence (looked up): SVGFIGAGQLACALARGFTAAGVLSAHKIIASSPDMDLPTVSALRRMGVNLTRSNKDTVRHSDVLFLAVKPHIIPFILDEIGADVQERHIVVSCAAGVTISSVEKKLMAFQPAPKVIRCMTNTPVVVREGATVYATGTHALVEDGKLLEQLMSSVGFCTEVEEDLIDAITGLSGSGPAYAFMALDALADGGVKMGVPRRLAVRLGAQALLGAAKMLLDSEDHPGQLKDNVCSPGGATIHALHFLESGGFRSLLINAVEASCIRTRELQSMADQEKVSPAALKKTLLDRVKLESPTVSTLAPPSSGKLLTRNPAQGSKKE

[4] = target: Letm1_IPI:IPI00131177.1 (mouse, UniProt Q9Z2I0 115-738)
Sequence of UniProt Q9Z2I0 (Q9Z2I0 115-738 limits assumed): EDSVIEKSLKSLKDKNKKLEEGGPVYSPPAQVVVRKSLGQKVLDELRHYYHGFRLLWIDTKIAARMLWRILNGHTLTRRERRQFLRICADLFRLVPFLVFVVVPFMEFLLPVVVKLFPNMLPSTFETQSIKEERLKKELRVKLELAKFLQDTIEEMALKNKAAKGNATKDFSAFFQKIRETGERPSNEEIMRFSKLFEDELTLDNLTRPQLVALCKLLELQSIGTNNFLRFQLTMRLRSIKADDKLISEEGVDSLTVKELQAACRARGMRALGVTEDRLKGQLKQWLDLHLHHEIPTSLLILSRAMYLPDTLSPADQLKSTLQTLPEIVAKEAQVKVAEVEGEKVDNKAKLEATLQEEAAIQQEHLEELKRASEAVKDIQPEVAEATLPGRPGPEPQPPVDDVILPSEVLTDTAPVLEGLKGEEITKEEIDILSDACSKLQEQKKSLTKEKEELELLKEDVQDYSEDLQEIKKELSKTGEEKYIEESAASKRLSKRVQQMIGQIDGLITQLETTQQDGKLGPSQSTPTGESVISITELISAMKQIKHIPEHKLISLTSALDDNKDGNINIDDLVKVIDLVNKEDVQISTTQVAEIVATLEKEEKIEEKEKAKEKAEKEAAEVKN

[5] = target: T4, Mthfd1l_IPI:IPI00228113.5 (mouse, UniProt Q3V3R1 32-977)
T4 sequence (looked up): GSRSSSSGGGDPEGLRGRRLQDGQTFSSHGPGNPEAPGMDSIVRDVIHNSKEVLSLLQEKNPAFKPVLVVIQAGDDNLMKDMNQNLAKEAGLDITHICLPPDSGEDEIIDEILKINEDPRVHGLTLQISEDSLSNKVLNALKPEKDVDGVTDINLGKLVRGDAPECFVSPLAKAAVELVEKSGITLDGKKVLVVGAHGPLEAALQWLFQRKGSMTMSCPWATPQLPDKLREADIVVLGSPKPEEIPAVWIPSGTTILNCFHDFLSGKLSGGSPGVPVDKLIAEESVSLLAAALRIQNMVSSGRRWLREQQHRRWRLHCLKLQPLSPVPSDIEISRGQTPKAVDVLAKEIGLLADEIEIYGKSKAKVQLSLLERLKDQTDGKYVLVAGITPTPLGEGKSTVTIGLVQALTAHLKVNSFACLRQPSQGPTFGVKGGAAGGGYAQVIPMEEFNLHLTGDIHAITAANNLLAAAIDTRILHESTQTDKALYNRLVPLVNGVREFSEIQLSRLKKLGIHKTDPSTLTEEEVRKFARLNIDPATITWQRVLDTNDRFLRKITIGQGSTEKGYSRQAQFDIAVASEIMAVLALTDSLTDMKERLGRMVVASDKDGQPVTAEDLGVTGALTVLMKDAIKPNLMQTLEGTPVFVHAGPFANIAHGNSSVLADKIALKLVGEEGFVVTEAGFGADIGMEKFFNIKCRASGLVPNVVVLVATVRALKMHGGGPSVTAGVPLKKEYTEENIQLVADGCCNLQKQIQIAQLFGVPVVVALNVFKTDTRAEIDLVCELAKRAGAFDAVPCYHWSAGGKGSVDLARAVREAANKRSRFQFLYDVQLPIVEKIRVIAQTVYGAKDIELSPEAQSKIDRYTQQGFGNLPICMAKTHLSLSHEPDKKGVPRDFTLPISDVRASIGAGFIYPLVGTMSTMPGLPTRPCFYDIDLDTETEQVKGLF

[6] = target: T5, Hsd17b10_IPI:IPI00320847.1 (mouse, UniProt O08756 2-261)
T5 sequence (looked up): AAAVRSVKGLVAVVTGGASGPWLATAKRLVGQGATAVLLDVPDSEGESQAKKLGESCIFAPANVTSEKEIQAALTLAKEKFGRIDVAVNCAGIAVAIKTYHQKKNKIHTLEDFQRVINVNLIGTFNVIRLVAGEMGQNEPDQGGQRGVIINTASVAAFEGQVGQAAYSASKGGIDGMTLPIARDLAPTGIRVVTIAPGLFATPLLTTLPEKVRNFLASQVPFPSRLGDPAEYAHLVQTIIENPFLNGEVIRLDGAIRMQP

[7] = target: Slc25a1_IPI:IPI00276926.3 (mouse, UniProt Q8JZU2 14-311)
Sequence of UniProt Q8JZU2 (Q8JZU2 14-311 limits assumed): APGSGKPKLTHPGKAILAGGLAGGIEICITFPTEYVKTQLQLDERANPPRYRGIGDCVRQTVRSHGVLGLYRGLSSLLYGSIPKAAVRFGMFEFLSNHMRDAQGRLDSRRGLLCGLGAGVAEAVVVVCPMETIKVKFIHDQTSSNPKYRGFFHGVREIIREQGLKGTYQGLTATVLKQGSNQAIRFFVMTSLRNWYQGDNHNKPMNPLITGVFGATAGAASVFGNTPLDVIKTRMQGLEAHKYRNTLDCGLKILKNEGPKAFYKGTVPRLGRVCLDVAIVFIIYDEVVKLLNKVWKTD

[8] = target: Mtch1_IPI:IPI00137173.1 (mouse, UniProt Q791T5 1-389, limits assumed)
Sequence of UniProt Q791T5 (Q791T5 whole entry): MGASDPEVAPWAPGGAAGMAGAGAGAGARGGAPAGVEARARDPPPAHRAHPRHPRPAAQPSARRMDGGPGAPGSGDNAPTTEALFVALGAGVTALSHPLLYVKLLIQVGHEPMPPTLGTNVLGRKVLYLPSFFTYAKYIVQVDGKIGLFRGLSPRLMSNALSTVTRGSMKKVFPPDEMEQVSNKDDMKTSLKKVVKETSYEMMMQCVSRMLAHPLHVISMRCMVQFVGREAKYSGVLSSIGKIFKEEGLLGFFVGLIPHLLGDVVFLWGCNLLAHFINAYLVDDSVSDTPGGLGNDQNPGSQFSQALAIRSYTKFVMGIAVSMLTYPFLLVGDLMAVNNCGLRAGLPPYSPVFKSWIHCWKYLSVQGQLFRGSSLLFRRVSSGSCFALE

binding result [1]: no binding | binding result [2]: no binding | binding result [3]: no binding | binding result [4]: no binding | binding result [5]: no binding | binding result [6]: no binding | binding result [7]: no binding | binding result [8]: no binding
B1: GST alone (other)
chain: not shown
notes: Negative control of the pull-downs; also called control GST
